Here are results for 1 molecule from the supplement of paper PMC8728848.

Holding throughout (assay): glycan array binding signal (z-score within array); higher = stronger binding
Details in all cases: glycan notation: IUPAC condensed, linker removed

For experiment [1], the target named is Neu5Ac(a2-3)Gal(b1-4)GlcNAc(b1-2)Man(a1-3)[Neu5Ac(a2-3)Gal(b1-4)GlcNAc(b1-2)Man(a1-6)]Man(b1-4)GlcNAc(b1-4)[Fuc(a1-6)]GlcNAc. The gist of the method: (§1)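 From the Consortium for Functional Glycomics database, 3228 arrays were curated, keeping only those whose protein sequence was available. Binding is given as a within-array Z-score averaged across arrays sharing a protein sequence and across linkers. Negative Z-scores can be read as non-binding.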

The target of experiment [2] is Neu5Ac(a2-3)Gal(b1-4)GlcNAc(b1-2)Man(a1-3)[Neu5Ac(a2-6)Gal(b1-4)GlcNAc(b1-2)Man(a1-6)]Man(b1-4)GlcNAc(b1-4)GlcNAc. The gist of the method: as §1
The target of experiment [3] is Neu5Ac(a2-3)Gal(b1-4)GlcNAc(b1-2)[Neu5Ac(a2-3)Gal(b1-4)GlcNAc(b1-2)]Man(a1-6)[Neu5Ac(a2-3)Gal(b1-4)GlcNAc(b1-2)Man(a1-3)][GlcNAc(b1-4)]Man(b1-4)GlcNAc(b1-4)GlcNAc. The gist of the method:
as §1

Experiment [4] addresses Neu5Ac(a2-3)Gal(b1-4)GlcNAc(b1-2)[Neu5Ac(a2-3)Gal(b1-4)GlcNAc(b1-4)]Man(a1-3)[GlcNAc(b1-4)][Neu5Ac(a2-3)Gal(b1-4)GlcNAc(b1-2)[Neu5Ac(a2-3)Gal(b1-4)GlcNAc(b1-6)]Man(a1-6)]Man(b1-4)GlcNAc(b1-4)GlcNAc. The gist of the method: as §1
In experiment [5] the target is Neu5Ac(a2-3)Gal(b1-4)GlcNAc(b1-2)[Neu5Ac(a2-3)Gal(b1-4)GlcNAc(b1-4)]Man(a1-3)[GlcNAc(b1-4)][Neu5Ac(a2-3)Gal(b1-4)GlcNAc(b1-4)Man(a1-6)]Man(b1-4)GlcNAc(b1-4)GlcNAc. An outline of the steps:
as §1

Experiment [6] deals with Neu5Ac(a2-3)Gal(b1-4)GlcNAc(b1-2)[Neu5Ac(a2-3)Gal(b1-4)GlcNAc(b1-6)]Man(a1-6)[Neu5Ac(a2-3)Gal(b1-4)GlcNAc(b1-2)Man(a1-3)]Man(b1-4)GlcNAc(b1-4)GlcNAc. The gist of the method: as §1
Experiment [7] concerns the target Neu5Ac(a2-3)Gal(b1-4)GlcNAc(b1-2)[Neu5Ac(a2-3)Gal(b1-4)GlcNAc(b1-6)]Man(a1-6)[Neu5Ac(a2-3)Gal(b1-4)GlcNAc(b1-2)Man(a1-3)][GlcNAc(b1-4)]Man(b1-4)GlcNAc(b1-4)GlcNAc. An outline of the steps: as §1
Experiment [8] concerns the target Neu5Ac(a2-3)Gal(b1-4)GlcNAc(b1-3)Gal. The gist of the method:
as §1

Experiment [9] deals with Neu5Ac(a2-3)Gal(b1-4)GlcNAc(b1-3)Gal(b1-3)GlcNAc. An outline of the steps:
as §1

Experiment [10] has as its target Neu5Ac(a2-3)Gal(b1-4)GlcNAc(b1-3)Gal(b1-4)GlcNAc. The gist of the method: as §1
Experiment [11] deals with Neu5Ac(a2-3)Gal(b1-4)GlcNAc(b1-3)Gal(b1-4)GlcNAc(b1-2)Man(a1-3)[Neu5Ac(a2-3)Gal(b1-4)GlcNAc(b1-3)Gal(b1-4)GlcNAc(b1-2)Man(a1-6)]Man(b1-4)GlcNAc(b1-4)GlcNAc. The gist of the method: as §1
For experiment [12], the target named is Neu5Ac(a2-3)Gal(b1-4)GlcNAc(b1-3)Gal(b1-4)GlcNAc(b1-3)Gal(b1-4)GlcNAc. An outline of the steps: as §1
Experiment [13] has as its target Neu5Ac(a2-3)Gal(b1-4)GlcNAc(b1-3)Gal(b1-4)GlcNAc(b1-3)Gal(b1-4)GlcNAc(b1-2)Man(a1-3)[Neu5Ac(a2-3)Gal(b1-4)GlcNAc(b1-3)Gal(b1-4)GlcNAc(b1-3)Gal(b1-4)GlcNAc(b1-2)Man(a1-6)]GalNAc. The gist of the method:
as §1

For experiment [14], the target named is Neu5Ac(a2-3)Gal(b1-4)GlcNAc(b1-3)Gal(b1-4)GlcNAc(b1-3)GalNAc. An outline of the steps: as §1
Experiment [15] addresses Neu5Ac(a2-3)Gal(b1-4)GlcNAc(b1-3)Gal(b1-4)GlcNAc(b1-3)[Neu5Ac(a2-3)Gal(b1-4)GlcNAc(b1-3)Gal(b1-4)GlcNAc(b1-6)]GalNAc. An outline of the steps:
as §1

Experiment [16] has as its target Neu5Ac(a2-3)Gal(b1-4)GlcNAc(b1-3)Gal(b1-4)GlcNAc(b1-6)[Gal(b1-3)]GalNAc. An outline of the steps:
as §1

The target in experiment [17] is Neu5Ac(a2-3)Gal(b1-4)GlcNAc(b1-3)Gal(b1-4)[Fuc(a1-3)]GlcNAc. The gist of the method: as §1
Experiment [18] concerns the target Neu5Ac(a2-3)Gal(b1-4)GlcNAc(b1-3)GalNAc. An outline of the steps: as §1
Experiment [19] has as its target Neu5Ac(a2-3)Gal(b1-4)GlcNAc(b1-3)[Neu5Ac(a2-3)Gal(b1-4)GlcNAc(b1-6)]GalNAc. The gist of the method:
as §1

In experiment [20] the target is Neu5Ac(a2-3)Gal(b1-4)GlcNAc(b1-6)GalNAc. An outline of the steps: as §1
Experiment [21] concerns the target Neu5Ac(a2-3)Gal(b1-4)GlcNAc(b1-6)[Gal(b1-3)]GalNAc. The gist of the method: as §1
Experiment [22] addresses Neu5Ac(a2-3)Gal(b1-4)GlcNAc(b1-6)[Neu5Ac(a2-3)Gal(b1-3)]GalNAc. The gist of the method: as §1
For experiment [23], the target named is Neu5Ac(a2-3)Gal(b1-4)GlcNAc6S. The gist of the method:
as §1

Some of the results follow.

B1: LSECtin (Homo sapiens), Q6UXB4 (protein)
chain: MDTTRYSKWGGSSEEVPGGPWGRWVHWSRRPLFLALAVLVTTVLWAVILSILLSKASTERAALLDGHDLLRTNASKQTAALGALKEEVGDCHSCCSGTQAQLQTTRAELGEAQAKLMEQESALRELRERVTQGLAEAGRGREDVRTELFRALEAVRLQNNSCEPCPTSWLSFEGSCYFFSVPKTTWAAAQDHCADASAHLVIVGGLDEQGFLTRNTRGRGYWLGLRAVRHLGKVQGYQWVDGVSLSFSHWNQGEPNDAWGRENCVMMLHTGLWNDAPCDSEKDGWICEKRHNC
For the molecule B1, the “glycan array binding signal (z-score)” value in experiment [1] was -0.128; in experiment [2], -0.179; in experiment [3] it was -0.146; in experiment [4], -0.134; in experiment [5], -0.137; in experiment [6], -0.104. Further, the “glycan array binding signal (z-score)” value in experiment [7] was -0.135; in experiment [8], -0.138; in [9] it was -0.215; in [10], -0.239; in [11] it was -0.133; in [12] it was -0.196. Further, the “glycan array binding signal (z-score)” value is -0.124 in [13]; -0.134 in experiment [14]; -0.129 in experiment [15]; -0.122 in [16]; -0.103 in [17]; -0.208 in [18]. The “glycan array binding signal (z-score)” value in [19] is -0.137; in [20] it was -0.133; in experiment [21], -0.204; in experiment [22], -0.215; in experiment [23], -0.112.
